Laboratory results: the supplement of paper PMC3334620
Over roughly 33,000 sequences, “E-score (-0.5 to 0.5)” has its median near -0.017; the highest 2% begin near 0.3. Some of the results follow.

These sequences were tested against T1, Sut1 (UniProt P53032) (assay: PBM E-score (8-mer binding enrichment) (E-score (-0.5 to 0.5)); higher = stronger / more preferred TF binding; most listed sequences are background and not binding sites). Settings: protein concentration: 200 nM; construct: GST-full length.
T1 sequence: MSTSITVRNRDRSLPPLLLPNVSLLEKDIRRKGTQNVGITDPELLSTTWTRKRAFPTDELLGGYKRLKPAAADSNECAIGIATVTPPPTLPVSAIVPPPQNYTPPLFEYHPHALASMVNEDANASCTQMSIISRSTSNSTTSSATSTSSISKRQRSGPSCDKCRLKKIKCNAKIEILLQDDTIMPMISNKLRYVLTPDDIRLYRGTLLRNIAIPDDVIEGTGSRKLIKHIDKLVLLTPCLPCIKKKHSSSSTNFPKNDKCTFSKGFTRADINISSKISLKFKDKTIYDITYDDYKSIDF
How it was run: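 Yeast transcription factors carrying a GST tag, as full-length proteins or DNA-binding domains, were produced by PURExpress in vitro transcription/translation. About 100-200 nM protein was applied to universal all-10-mer Agilent arrays, double-stranded by primer extension on fresh or once-stripped slides. Bound protein was detected with fluorescent anti-GST, and scans were normalised with masliner. The Universal PBM Analysis Suite gave each ungapped eight-base word, pooled with its reverse complement, an E-score, a modified Wilcoxon-Mann-Whitney statistic.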

Sequence	PBM E-score
CGAGACAG	-0.039
ACGTTGTC	-0.211
GGTTGGAA	-0.162
ACCAGGCT	-0.232
GGCCACTA	-0.179
CAACCCAA	0.00017
GCCCCGTA	-0.0818
TGCCCACA	-0.207
AGTCGCAG	-0.0966
TCCTACAA	0.101
ATTCCATA	0.138
CGCCCGAA	-0.101
AAACTCAG	-0.0771
CCACCATC	-0.164
CCTCAGTC	-0.145
AGGGCGCG	-0.163
AGCAATTC	0.156
CTTCTTAA	0.173
AAATGCTC	0.0867
CTTCAACA	0.0834
GATGAAAA	0.131
AGGAGCCC	-0.164
AAGTCGAC	0.13
AACGGTCG	-0.192

Sequence	PBM E-score
CCTCGGCG	-0.0382
TGGGCTAA	-0.0377
AAAAAAAG	0.199
AAAACACA	0.0925
CACCGCGA	-0.0965
CAACGGTG	-0.269
ATGCAGCA	-0.134
AAAATTTC	0.189
ACGTCAAT	-0.135
AGATTGGG	0.00543
CCTTCACC	-0.231
TGAATTAA	0.13
ACGGGGTG	-0.143
CAACTATA	0.132
ACCGTCCA	-0.00866
AGGAATTC	-0.203
AAAACGCT	0.0462
ACGAGCCG	-0.146
CGACGGCC	-0.227
ACAAGCTA	-0.192
GATCGCCC	-0.259
ACTAGGTC	-0.0189
TCTTATCA	0.269
ATTACCCA	0.00533

Sequence	PBM E-score
AATGTTTA	0.225
CGATTTAC	0.108
AAAGTGCA	0.0236
AAAAAGGC	0.0807
ACCCATAC	-0.173
ACTGCCCT	-0.0307
ACACTGCG	-0.0541
CAAACGGA	0.302
AAGGAGGG	-0.201
CTACCTCC	-0.0796
AATGGTAT	0.0823
AGACACGC	-0.129
GTAACTCA	-0.112
GAGACGCC	-0.0839
AGCCCAGG	-0.337
GACTTGTA	0.0238
TCCAGACA	-0.13
CCTCCTCA	-0.245
AACTGAGT	0.0495
ACAGCTGT	-0.0756
TAGCGAAA	0.135
TAGCTACA	-0.0801
TCGGCCGA	0.323
ATCAAAGC	0.108

Sequence	PBM E-score
ATGTGATG	-0.0614
GGAGAAAC	0.191
TCACCGGA	0.397
CCCCTTTC	-0.152
CCCCACAC	-0.238
CAAGAGAC	-0.24
ATCGCTGA	-0.0674
CGCGGCGC	-0.0595
ACATAGAT	0.131
ACAACCGC	0.126
TTCAGCAA	0.00636
CCCCAATC	-0.327
TATCGGCA	0.0647
ACTCGGAA	0.323
CGGGAGTA	0.17
GCAACAGC	-0.203
ATTTCGAC	0.0327
ACCGCTCA	-0.104
GGGCCCAC	-0.00463
CGTCGCTC	-0.00803
AATTTGAT	0.152
AAGAGCGA	-0.101
